Changes are numbered by the printed parent chain. These are yes or no findings as the source states them, for the method shown. For part of these data: In cells and extracts the contact can be indirect. Some entries that bind do so weakly or less than the wild type. For part of these data: Sequences can lack the tags named with a protein. Each block holds one substance with its values, some of them ahead of it.
Experiments:
[1] = target: T1, StrepHA-SARAF_CytD-SGFP2 (WT) (human) (UniProt Q96BY9); test: pull-down; Strep-pulldown: StrepHA-SARAF_CytD-SGFP2 (WT or mutants) held on Strep-Tactin XT magnetic beads from cleared lysates of HEK293 (endogenous ALG-2) or HEK293 ALG-2KO cells co-expressing FLAG-ALG-2; HKM, 0.2% Nonidet P-40, 10 μM CaCl2, overnight 4 °C; WB with anti-ALG-2 or anti-FLAG
T1 sequence: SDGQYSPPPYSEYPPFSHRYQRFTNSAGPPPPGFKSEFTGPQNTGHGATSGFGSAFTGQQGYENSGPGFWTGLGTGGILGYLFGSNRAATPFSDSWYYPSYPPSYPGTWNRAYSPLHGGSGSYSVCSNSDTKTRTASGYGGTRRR

The chains behind the UniProt entries cited, without tags or fusion partners. Where a name states a change or a piece, a line headed by the entry shows the natural chain unless it says otherwise. A line that says so, or that is headed by a name, gives the form on record, which may keep a tag or linker.
UniProt O75340: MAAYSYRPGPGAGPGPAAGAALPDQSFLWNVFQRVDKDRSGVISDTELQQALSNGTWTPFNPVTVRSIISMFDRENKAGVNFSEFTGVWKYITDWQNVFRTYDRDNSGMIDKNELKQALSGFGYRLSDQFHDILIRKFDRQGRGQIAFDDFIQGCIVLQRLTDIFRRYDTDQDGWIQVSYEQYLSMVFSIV
FLAG-ALG-2 E47/114A (O75340, form named): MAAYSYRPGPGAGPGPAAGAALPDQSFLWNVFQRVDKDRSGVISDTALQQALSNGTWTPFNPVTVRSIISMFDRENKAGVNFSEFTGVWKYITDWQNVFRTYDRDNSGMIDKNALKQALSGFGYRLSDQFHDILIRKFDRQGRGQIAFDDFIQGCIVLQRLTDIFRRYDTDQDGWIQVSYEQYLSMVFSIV

[2] = target: T2, StrepHA-SARAF_CytD-SGFP2 F228S (human) (UniProt Q96BY9); test: as above
T2 sequence: T1 sequence with F34S

[3] = target: T3, StrepHA-SARAF_CytD-SGFP2 Δ2 (human) (UniProt Q96BY9); test: as above
T3 sequence: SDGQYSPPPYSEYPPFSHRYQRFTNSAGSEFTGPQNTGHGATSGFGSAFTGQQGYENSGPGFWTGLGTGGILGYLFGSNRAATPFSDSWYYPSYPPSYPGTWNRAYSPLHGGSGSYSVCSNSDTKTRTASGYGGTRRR

[4] = target: T4, untagged wild type (WT) SARAF (human) (UniProt Q96BY9); test: co-IP; IP with anti-SARAF pAb from cleared HEK293 lysates; HKM, 1% CHAPS, 5 mM EGTA, overnight 4 °C; WB with anti-ALG-2 pAb
T4 sequence: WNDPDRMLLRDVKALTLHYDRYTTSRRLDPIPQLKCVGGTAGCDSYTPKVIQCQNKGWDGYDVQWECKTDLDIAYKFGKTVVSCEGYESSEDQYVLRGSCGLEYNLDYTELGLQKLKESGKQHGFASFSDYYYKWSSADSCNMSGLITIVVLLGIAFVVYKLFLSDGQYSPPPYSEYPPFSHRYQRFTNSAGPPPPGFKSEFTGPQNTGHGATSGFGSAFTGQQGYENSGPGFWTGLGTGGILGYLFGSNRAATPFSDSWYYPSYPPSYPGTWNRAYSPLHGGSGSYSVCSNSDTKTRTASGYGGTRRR

[5] = target: T5, endogenous SARAF (human (endogenous in HEK293, HeLa, MCF7)) (UniProt Q96BY9); test: as above
T5 sequence: T4 sequence

[6] = target: T4, untagged wild type (WT) SARAF (human); test: co-IP; IP with anti-SARAF pAb from cleared lysates (HEK293 transfected or vector, HeLa, MCF7); HKM, 1% CHAPS, 100 μM CaCl2, overnight 4 °C; WB with anti-ALG-2 pAb
[7] = target: T5, endogenous SARAF (human (endogenous in HEK293, HeLa, MCF7)); test: as above
[8] = target: T1, StrepHA-SARAF_CytD-SGFP2 (WT) (human); test: pull-down; Strep-pulldown of StrepHA-SARAF_CytD-SGFP2 from mixed HEK293 lysates (HKM, 0.2% Nonidet P-40) with 5 mM EGTA or 5 mM EDTA; WB with anti-ALG-2
[9] = target: T6, SGFP2-fused SHISA4 (human) (UniProt Q96DD7); test: pull-down; SGFP2-fused proteins held on protein G magnetic beads via anti-GFP pAb; incubated with Nluc-ALG-2 (300 ng/mL) in buffer HKM, 0.2% Nonidet P-40, 0.1% gelatin, 100 μM CaCl2, 2 h, 4 °C; bound luciferase activity relative to Sec31A-p (100%); only the binder purified
T6 sequence: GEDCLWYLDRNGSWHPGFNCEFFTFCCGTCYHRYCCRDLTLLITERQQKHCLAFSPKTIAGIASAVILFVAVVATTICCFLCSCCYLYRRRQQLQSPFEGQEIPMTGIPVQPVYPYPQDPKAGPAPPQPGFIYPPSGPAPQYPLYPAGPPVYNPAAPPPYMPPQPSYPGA

[10] = target: T6, SGFP2-fused SHISA4 (human); test: far-Western, overlay or dot blot; SGFP2-fused proteins immunoprecipitated with anti-GFP pAb from HEK293 ALG-2KD lysates, resolved and blotted; membrane probed with Nluc-ALG-2; luminescence read in TBS containing 100 μM CaCl2; only the binder purified
[11] = target: T7, SGFP2-fused FNDC3A (human) (UniProt Q9Y2H6); test: as above
T7 sequence: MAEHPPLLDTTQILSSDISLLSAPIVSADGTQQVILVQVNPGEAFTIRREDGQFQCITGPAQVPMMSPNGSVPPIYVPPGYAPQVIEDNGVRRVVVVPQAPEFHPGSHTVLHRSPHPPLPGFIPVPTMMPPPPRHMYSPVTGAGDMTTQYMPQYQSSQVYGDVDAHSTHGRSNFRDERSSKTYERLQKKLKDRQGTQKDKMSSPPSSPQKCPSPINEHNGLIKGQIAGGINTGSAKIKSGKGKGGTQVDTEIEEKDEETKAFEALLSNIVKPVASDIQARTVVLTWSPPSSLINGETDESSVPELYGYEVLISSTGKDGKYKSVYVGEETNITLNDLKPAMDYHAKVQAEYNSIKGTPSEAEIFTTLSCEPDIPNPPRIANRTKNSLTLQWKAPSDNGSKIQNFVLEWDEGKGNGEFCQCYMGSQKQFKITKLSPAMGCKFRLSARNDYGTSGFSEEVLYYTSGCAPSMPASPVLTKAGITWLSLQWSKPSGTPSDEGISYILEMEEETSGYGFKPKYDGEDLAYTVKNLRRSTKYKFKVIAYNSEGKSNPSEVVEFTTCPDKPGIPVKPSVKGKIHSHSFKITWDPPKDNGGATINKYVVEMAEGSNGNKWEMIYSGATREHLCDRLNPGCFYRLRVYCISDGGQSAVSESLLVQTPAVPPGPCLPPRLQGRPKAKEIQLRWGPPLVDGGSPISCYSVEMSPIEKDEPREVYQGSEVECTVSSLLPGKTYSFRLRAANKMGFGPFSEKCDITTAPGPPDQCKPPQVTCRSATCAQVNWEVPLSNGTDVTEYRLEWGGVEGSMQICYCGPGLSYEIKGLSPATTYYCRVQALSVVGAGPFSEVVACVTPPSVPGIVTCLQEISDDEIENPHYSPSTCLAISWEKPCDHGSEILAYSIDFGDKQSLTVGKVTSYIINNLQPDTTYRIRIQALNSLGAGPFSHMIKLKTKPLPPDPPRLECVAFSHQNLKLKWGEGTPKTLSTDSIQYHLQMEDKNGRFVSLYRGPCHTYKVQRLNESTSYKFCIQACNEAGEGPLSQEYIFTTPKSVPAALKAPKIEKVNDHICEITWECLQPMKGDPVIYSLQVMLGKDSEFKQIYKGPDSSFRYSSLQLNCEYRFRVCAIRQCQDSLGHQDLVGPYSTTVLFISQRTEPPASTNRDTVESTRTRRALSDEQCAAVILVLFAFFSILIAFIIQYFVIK

Substance: FLAG-ALG-2 F85A (from UniProt O75340 1-191)
binding [1]: no binding

Substance: FLAG-ALG-2 Y180A (from UniProt O75340 1-191)
binding [1]: binds

Substance: FLAG-tagged ALG-2 (WT) (from UniProt O75340 1-191)
binding [2]: no binding
binding [1]: binds

Substance: nanoluciferase (NanoLuc, Nluc)-fused ALG-2 (from UniProt O75340 1-191)
binding [9]: binds
binding [10]: binds
binding [11]: binds

The next lines start with results.

binding [1]: no binding
Substance: FLAG-ALG-2 E47/114A (from UniProt O75340 1-191)

binding [1]: binds
binding [3]: no binding
binding [4]: no binding (condition: with 5 mM EGTA)
binding [5]: no binding (condition: with 5 mM EGTA)
binding [6]: binds
binding [7]: binds
Substance: endogenous ALG-2 (from UniProt O75340 1-191)
binding [8]: no binding (condition: with 5 mM EGTA or 5 mM EDTA)
